Measurements as given in the supplement of paper PMC12217912.
The list shows a part of the results. The full chains were built here from the parent and the listed change. Inactive controls read about 0.05.

B1: TEV protease; numbered along this chain (parent)
chain: MGESLFKGPRDYNPISSSICHLTNESDGHTTSLYGIGFGPFIITNKHLFRRNNGTLVVQSLHGVFKVKDTTTLQQHLVDGRDMIIIRMPKDFPPFPQKLKFREPQREERICLVTTNFQTKSMSSMVSDTSCTFPSGDGIFWKHWIQTKDGQCGSPLVSTRDGFIVGIHSASNFTNTNNYFTSVPKNFMELLTNQEAQQWVSGWRLNADSVLWGGHKVFMVKPEEPFQPVKEATQL

Variants of: B1
Assay: raw area under fraction-flipped curve 0-4 h after induction (AUC4h, not background-subtracted), DNA-recorder readout of cleavage of the substrate (dimensionless); higher = more cleavage of the substrate by the protease variant
Conditions: temperature: 34 °C; time window: 0-4 h after rhamnose induction
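Also: Bxb1 expression induced with 0.2% (w/v) L-rhamnose at OD600 near 0.5, cultures sampled hourly, flipped fraction per protease–substrate barcode pair counted by paired-end Illumina sequencing.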

| Variant | area with substrate ENLYFDS | area with substrate ENLYFES | area with substrate ENLYFFS | area with substrate ENLYFHS | area with substrate ENLYFIS | area with substrate ENLYFKS | area with substrate ENLYFLS | area with substrate ENLYFMS | area with substrate ENLYFNS | area with substrate ENLYFPS | area with substrate ENLYFRS | area with substrate ENLYFTS | area with substrate ENLYFVS | area with substrate ENLYFWS | area with substrate ENLYFGS | area with substrate ENLYFCS | area with substrate ENLYFSS | area with substrate ENLYFYS |
| --- | --- | --- | --- | --- | --- | --- | --- | --- | --- | --- | --- | --- | --- | --- | --- | --- | --- | --- |
| T174W | 0.0721 | 0.062 | 0.0663 | 0.0594 | 0.0595 | 0.0532 | 0.0568 | 0.068 | 0.0683 | 0.0538 | 0.0607 | 0.0484 | 0.0543 | 0.047 | – | – | – | – |
| T174N | 0.0564 | 0.0618 | 0.0705 | 0.0588 | – | 0.0291 | – | 0.0778 | 0.0639 | 0.0367 | 0.065 | 0.0497 | – | – | 0.0663 | – | – | – |
| T174Q | 0.0484 | – | – | – | 0.0498 | – | – | 0.0671 | 0.0544 | 0.0765 | 0.0589 | – | – | 0.0621 | 0.0722 | 0.0488 | 0.0575 | 0.0556 |
| L190A | 0.0818 | 0.0574 | 0.0669 | – | 0.052 | – | – | 0.077 | 0.0643 | 0.0412 | – | – | 0.0769 | 0.0795 | – | 0.0647 | 0.068 | 0.0537 |
| K230Q | – | 0.0693 | 0.064 | – | 0.0592 | 0.0781 | – | 0.074 | 0.0696 | – | 0.0627 | 0.0639 | 0.0799 | 0.0507 | – | 0.0539 | 0.0522 | 0.0456 |
| K230H | – | 0.0678 | – | – | 0.0544 | – | 0.0608 | 0.0377 | 0.0699 | 0.0674 | 0.0543 | – | 0.0725 | 0.0392 | – | 0.0548 | 0.0209 | 0.0607 |
| P225Q | – | 0.0742 | 0.0739 | – | 0.0597 | 0.0591 | 0.0607 | 0.0596 | 0.0565 | 0.0608 | – | – | 0.0614 | – | – | 0.0621 | – | 0.0456 |
| G2L | 0.0522 | 0.0252 | 0.0391 | 0.0535 | 0.0455 | 0.065 | – | – | 0.0516 | 0.0609 | 0.0548 | 0.0543 | – | 0.0439 | – | – | – | – |
| F65D | 0.0541 | 0.0603 | 0.0518 | 0.0574 | 0.0566 | – | – | 0.076 | – | 0.0589 | – | 0.0492 | – | 0.0289 | – | – | – | – |
| I86L | 0.0409 | – | 0.0576 | – | 0.069 | – | – | 0.0627 | – | 0.0649 | – | 0.0593 | – | 0.0464 | – | – | 0.0667 | 0.0267 |
| F226R | – | 0.0591 | 0.0789 | – | 0.0533 | – | 0.0583 | 0.0447 | 0.061 | 0.0601 | 0.0434 | 0.0409 | – | – | 0.0665 | 0.0523 | – | – |
| F226T | – | – | – | 0.06 | 0.046 | 0.0628 | – | 0.0712 | 0.0645 | – | – | 0.0444 | – | 0.0536 | – | 0.0421 | – | – |
| S158F | 0.0532 | 0.0634 | 0.0709 | 0.0139 | 0.0566 | – | – | – | – | 0.0348 | 0.0385 | 0.0539 | – | – | 0.0564 | 0.044 | – | – |
| S158P | – | 0.06 | 0.0503 | – | 0.0451 | 0.0559 | – | 0.0561 | 0.0586 | – | – | 0.0353 | 0.0765 | 0.0538 | – | 0.0396 | 0.0582 | – |
| Q227C | – | 0.0721 | 0.065 | – | 0.0592 | 0.0558 | 0.0579 | 0.0697 | 0.0604 | 0.0587 | 0.0596 | 0.0571 | 0.0523 | 0.0966 | – | 0.0573 | – | – |
| T159S | – | 0.0637 | 0.0741 | – | 0.0579 | 0.0563 | 0.0601 | – | 0.0672 | 0.058 | – | 0.0601 | – | 0.0534 | – | 0.059 | 0.0617 | 0.0758 |
| G202T | – | – | – | 0.0035 | – | – | – | 0.051 | – | 0.0304 | – | – | – | 0.106 | – | 0.0491 | 0.0826 | – |
| D91N | 0.0645 | – | 0.0577 | – | 0.0669 | – | – | 0.0461 | – | 0.0569 | – | 0.0479 | – | 0.0753 | 0.064 | – | – | – |

| Variant | area with substrate ENLYFDS | area with substrate ENLYFES | area with substrate ENLYFFS | area with substrate ENLYFHS | area with substrate ENLYFIS | area with substrate ENLYFKS | area with substrate ENLYFLS | area with substrate ENLYFMS | area with substrate ENLYFNS | area with substrate ENLYFPS | area with substrate ENLYFRS | area with substrate ENLYFTS | area with substrate ENLYFVS | area with substrate ENLYFWS | area with substrate ENLYFGS | area with substrate ENLYFCS | area with substrate ENLYFSS | area with substrate ENLYFYS |
| --- | --- | --- | --- | --- | --- | --- | --- | --- | --- | --- | --- | --- | --- | --- | --- | --- | --- | --- |
| I84R | 0.0548 | – | 0.0628 | – | 0.056 | 0.0574 | 0.0533 | 0.0797 | 0.0554 | – | 0.0703 | 0.0756 | – | 0.066 | – | – | – | – |
| L205T | – | – | – | – | – | – | – | 0.0577 | – | – | – | 0.0536 | – | – | 0.07 | 0.0521 | – | – |
| S127W | 0.0699 | – | 0.0566 | – | 0.0514 | – | 0.059 | 0.0829 | 0.0837 | 0.0596 | 0.0909 | 0.0588 | 0.0634 | 0.0461 | – | – | – | – |
| E108F | 0.0213 | – | – | – | 0.0525 | – | – | 0.0466 | 0.0624 | – | – | – | – | – | – | – | 0.0557 | 0.0606 |
| H76V | 0.0513 | 0.036 | – | – | 0.055 | – | – | 0.0527 | – | 0.0527 | – | – | – | 0.0561 | – | – | – | – |
| F95K | 0.0682 | – | – | – | 0.0438 | – | – | – | – | 0.0542 | – | – | – | – | – | – | – | 0.061 |
| F95D | 0.0381 | – | 0.0657 | – | – | – | – | 0.0541 | 0.0572 | 0.0474 | – | – | 0.0435 | – | 0.0405 | – | 0.0507 | – |
| G162K | – | 0.0785 | – | – | 0.0538 | – | – | 0.0665 | – | 0.0562 | – | – | – | – | – | 0.0838 | – | – |
| G162I | 0.057 | – | – | – | 0.0482 | 0.0589 | – | 0.0641 | – | 0.066 | – | – | – | – | – | – | 0.0465 | 0.0484 |
| Q118D | 0.0679 | 0.065 | – | – | – | – | 0.0571 | 0.0631 | – | 0.0535 | – | – | – | 0.0527 | – | – | – | – |
| Y179F | – | – | 0.0594 | 0.0568 | – | – | 0.0522 | 0.0716 | 0.0695 | – | 0.0609 | 0.0603 | – | 0.0627 | – | 0.049 | – | – |
| A170H | – | 0.0621 | 0.0224 | 0.0585 | – | – | – | – | – | – | 0.0637 | – | 0.0637 | – | – | 0.0655 | – | – |
| S154Y | – | 0.05 | 0.0687 | – | 0.053 | – | – | – | – | 0.0588 | – | – | – | – | 0.0616 | 0.0598 | 0.0553 | – |
| A207W | – | – | 0.068 | – | 0.0662 | 0.0475 | – | 0.055 | 0.0647 | 0.0414 | – | – | 0.0648 | 0.0737 | – | 0.0638 | 0.0686 | 0.0667 |
| A207Q | 0.0574 | 0.0626 | 0.0624 | 0.0555 | 0.0659 | 0.0439 | 0.0682 | 0.0622 | – | 0.0657 | – | – | – | 0.0534 | – | – | 0.0652 | – |
| N178D | 0.0566 | 0.0793 | – | – | – | – | 0.0486 | – | 0.0588 | 0.0693 | 0.0556 | 0.0537 | – | – | – | – | – | 0.0665 |
| N178K | 0.0653 | 0.0812 | 0.0646 | 0.0707 | – | 0.0738 | 0.0459 | 0.0567 | 0.0659 | 0.0536 | – | 0.0595 | 0.053 | – | – | 0.0486 | – | 0.0553 |
| N178H | 0.0581 | 0.0844 | – | – | – | – | – | 0.0767 | 0.0765 | – | – | – | – | 0.0592 | – | 0.065 | – | – |
